{"source": "paper PMC9911399", "about": "“Two distinct binding modes provide the RNA-binding protein RbFox with extraordinary sequence specificity”", "binders": {"B1": {"name": "CUUUUGA (DNA:RNA)", "RNA": "GGGAGACCGGAAUUCAGAUUGUCCCUUUUGAUUAAAUCCCGUCGUAGCCACCA", "DNA 1": "CAATCTGAATTCCGGTCTCCC", "DNA 2": "TGGTGGCTACGACGGGATT"}, "B2": {"name": "AACUGGC (DNA:RNA)", "RNA": "B1 RNA with C25A, U26A, U27C, U29G, A31C", "DNA 1": "CAATCTGAATTCCGGTCTCCC", "DNA 2": "TGGTGGCTACGACGGGATT"}, "B3": {"name": "ACGUCUG (DNA:RNA)", "RNA": "B1 RNA with C25A, U26C, U27G, U29C, G30U, A31G", "DNA 1": "CAATCTGAATTCCGGTCTCCC", "DNA 2": "TGGTGGCTACGACGGGATT"}, "B4": {"name": "CGUAGGA (DNA:RNA)", "RNA": "B1 RNA with U26G, U28A, U29G", "DNA 1": "CAATCTGAATTCCGGTCTCCC", "DNA 2": "TGGTGGCTACGACGGGATT"}, "B5": {"name": "AGCACCG (DNA:RNA)", "RNA": "GGGAGACCGGAAUUCAGAUUGUCCAGCACCGUUAAAUCCCGUCGUAGCCACCA", "DNA 1": "CAATCTGAATTCCGGTCTCCC", "DNA 2": "TGGTGGCTACGACGGGATT"}, "B6": {"name": "AAUUCGA (DNA:RNA)", "RNA": "B1 RNA with C25A, U26A, U29C", "DNA 1": "CAATCTGAATTCCGGTCTCCC", "DNA 2": "TGGTGGCTACGACGGGATT"}, "B7": {"name": "CUAAUUG (DNA:RNA)", "RNA": "B1 RNA with U27A, U28A, G30U, A31G", "DNA 1": "CAATCTGAATTCCGGTCTCCC", "DNA 2": "TGGTGGCTACGACGGGATT"}, "B8": {"name": "UCGAAGU (DNA:RNA)", "RNA": "B5 RNA with A25U, G26C, C27G, C29A, C30G, G31U", "DNA 1": "CAATCTGAATTCCGGTCTCCC", "DNA 2": "TGGTGGCTACGACGGGATT"}, "B9": {"name": "CAGCGAU (DNA:RNA)", "RNA": "B1 RNA with U26A, U27G, U28C, U29G, G30A, A31U", "DNA 1": "CAATCTGAATTCCGGTCTCCC", "DNA 2": "TGGTGGCTACGACGGGATT"}, "B10": {"name": "CGGAAUC (DNA:RNA)", "RNA": "B5 RNA with A25C, C27G, C29A, C30U, G31C", "DNA 1": "CAATCTGAATTCCGGTCTCCC", "DNA 2": "TGGTGGCTACGACGGGATT"}, "B11": {"name": "CUAUGAA (DNA:RNA)", "RNA": "B1 RNA with U27A, U29G, G30A", "DNA 1": "CAATCTGAATTCCGGTCTCCC", "DNA 2": "TGGTGGCTACGACGGGATT"}, "B12": {"name": "UUUCCUA (DNA:RNA)", "RNA": "B1 RNA with C25U, U28C, U29C, G30U", "DNA 1": "CAATCTGAATTCCGGTCTCCC", "DNA 2": "TGGTGGCTACGACGGGATT"}, "B13": {"name": "CACAUAA (DNA:RNA)", "RNA": "B1 RNA with U26A, U27C, U28A, G30A", "DNA 1": "CAATCTGAATTCCGGTCTCCC", "DNA 2": "TGGTGGCTACGACGGGATT"}, "B14": {"name": "UGAUACC (DNA:RNA)", "RNA": "B5 RNA with A25U, C27A, A28U, C29A, G31C", "DNA 1": "CAATCTGAATTCCGGTCTCCC", "DNA 2": "TGGTGGCTACGACGGGATT"}, "B15": {"name": "ACUUAAC (DNA:RNA)", "RNA": "B1 RNA with C25A, U26C, U29A, G30A, A31C", "DNA 1": "CAATCTGAATTCCGGTCTCCC", "DNA 2": "TGGTGGCTACGACGGGATT"}, "B16": {"name": "AUCACGA (DNA:RNA)", "RNA": "B5 RNA with G26U, C30G, G31A", "DNA 1": "CAATCTGAATTCCGGTCTCCC", "DNA 2": "TGGTGGCTACGACGGGATT"}, "B17": {"name": "AAUCACU (DNA:RNA)", "RNA": "B5 RNA with G26A, C27U, A28C, C29A, G31U", "DNA 1": "CAATCTGAATTCCGGTCTCCC", "DNA 2": "TGGTGGCTACGACGGGATT"}, "B18": {"name": "AUAGCAC (DNA:RNA)", "RNA": "B5 RNA with G26U, C27A, A28G, C30A, G31C", "DNA 1": "CAATCTGAATTCCGGTCTCCC", "DNA 2": "TGGTGGCTACGACGGGATT"}, "B19": {"name": "GCGACAC (DNA:RNA)", "RNA": "B5 RNA with A25G, G26C, C27G, C30A, G31C", "DNA 1": "CAATCTGAATTCCGGTCTCCC", "DNA 2": "TGGTGGCTACGACGGGATT"}, "B20": {"name": "GUCGAUG (DNA:RNA)", "RNA": "B5 RNA with A25G, G26U, A28G, C29A, C30U", "DNA 1": "CAATCTGAATTCCGGTCTCCC", "DNA 2": "TGGTGGCTACGACGGGATT"}, "B21": {"name": "CUUGCCC (DNA:RNA)", "RNA": "B1 RNA with U28G, U29C, G30C, A31C", "DNA 1": "CAATCTGAATTCCGGTCTCCC", "DNA 2": "TGGTGGCTACGACGGGATT"}, "B22": {"name": "CAGUAAC (DNA:RNA)", "RNA": "B1 RNA with U26A, U27G, U29A, G30A, A31C", "DNA 1": "CAATCTGAATTCCGGTCTCCC", "DNA 2": "TGGTGGCTACGACGGGATT"}, "B23": {"name": "AGGCAUA (DNA:RNA)", "RNA": "B5 RNA with C27G, A28C, C29A, C30U, G31A", "DNA 1": "CAATCTGAATTCCGGTCTCCC", "DNA 2": "TGGTGGCTACGACGGGATT"}, "B24": {"name": "UCGGUCA (DNA:RNA)", "RNA": "B1 RNA with C25U, U26C, U27G, U28G, G30C", "DNA 1": "CAATCTGAATTCCGGTCTCCC", "DNA 2": "TGGTGGCTACGACGGGATT"}, "B25": {"name": "CAUUAGA (DNA:RNA)", "RNA": "B1 RNA with U26A, U29A", "DNA 1": "CAATCTGAATTCCGGTCTCCC", "DNA 2": "TGGTGGCTACGACGGGATT"}, "B26": {"name": "UUGGAAC (DNA:RNA)", "RNA": "B1 RNA with C25U, U27G, U28G, U29A, G30A, A31C", "DNA 1": "CAATCTGAATTCCGGTCTCCC", "DNA 2": "TGGTGGCTACGACGGGATT"}, "B27": {"name": "GGAGGAU (DNA:RNA)", "RNA": "B5 RNA with A25G, C27A, A28G, C29G, C30A, G31U", "DNA 1": "CAATCTGAATTCCGGTCTCCC", "DNA 2": "TGGTGGCTACGACGGGATT"}, "B28": {"name": "UAACGGU (DNA:RNA)", "RNA": "B1 RNA with C25U, U26A, U27A, U28C, U29G, A31U", "DNA 1": "CAATCTGAATTCCGGTCTCCC", "DNA 2": "TGGTGGCTACGACGGGATT"}, "B29": {"name": "CAAUUGA (DNA:RNA)", "RNA": "B1 RNA with U26A, U27A", "DNA 1": "CAATCTGAATTCCGGTCTCCC", "DNA 2": "TGGTGGCTACGACGGGATT"}, "B30": {"name": "ACUGAAU (DNA:RNA)", "RNA": "B5 RNA with G26C, C27U, A28G, C29A, C30A, G31U", "DNA 1": "CAATCTGAATTCCGGTCTCCC", "DNA 2": "TGGTGGCTACGACGGGATT"}, "B31": {"name": "GUGCCCG (DNA:RNA)", "RNA": "B5 RNA with A25G, G26U, C27G, A28C", "DNA 1": "CAATCTGAATTCCGGTCTCCC", "DNA 2": "TGGTGGCTACGACGGGATT"}}, "note": "Positions count from the first letter of the chain named. This is one part of the list."}
{"target": "T1, RBFOX1 RRM (Homo sapiens, UniProt Q9NWB1 109-208)", "T1 sequence": "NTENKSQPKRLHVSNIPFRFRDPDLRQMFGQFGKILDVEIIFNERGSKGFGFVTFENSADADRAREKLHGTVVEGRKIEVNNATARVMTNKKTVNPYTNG", "assay": "EMSA; HiTS-Eq, 1 nM pool, 10 min; buffer printed only for the single-RNA assays: 10 mM Tris pH 7.5, 150 mM NaCl, 3.4 mM EDTA, 0.001% NP-40, 30 C", "conditions": "tags: His6 N-terminal (pET28a); label: 5' 32P", "in_short": "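Purified RbFox RRM (wild type or mutant) was equilibrated for 10 min in 50 µL with 1 nM of a 5′-radiolabelled pool of RNA with 7 randomized nucleotides, its flanks annealed to DNA oligonucleotides, across increasing protein concentrations. Free RNA was separated by 8% native PAGE, excised, reverse-transcribed, PCR-barcoded and sequenced on an Illumina HiSeq 2500. Relative association constants came from read-count changes of each variant against the control reaction, normalised to the cognate motif.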"}
{"binder": "B1", "binding signal": "0.0111 KA relative to UGCAUGU"}
{"binder": "B2", "binding signal": "0.00787 KA relative to UGCAUGU"}
{"binder": "B3", "binding signal": "0.0136 KA relative to UGCAUGU"}
{"binder": "B4", "binding signal": "0.00437 KA relative to UGCAUGU"}
{"binder": "B5", "binding signal": "0.00835 KA relative to UGCAUGU"}
{"binder": "B6", "binding signal": "0.00992 KA relative to UGCAUGU"}
{"binder": "B7", "binding signal": "0.013 KA relative to UGCAUGU"}
{"binder": "B8", "binding signal": "0.00902 KA relative to UGCAUGU"}
{"binder": "B9", "binding signal": "0.00793 KA relative to UGCAUGU"}
{"binder": "B10", "binding signal": "0.0233 KA relative to UGCAUGU"}
{"binder": "B11", "binding signal": "0.0116 KA relative to UGCAUGU"}
{"binder": "B12", "binding signal": "0.00575 KA relative to UGCAUGU"}
{"binder": "B13", "binding signal": "0.00134 KA relative to UGCAUGU"}
{"binder": "B14", "binding signal": "0.00699 KA relative to UGCAUGU"}
{"binder": "B15", "binding signal": "0.00171 KA relative to UGCAUGU"}
{"binder": "B16", "binding signal": "0.00363 KA relative to UGCAUGU"}
{"binder": "B17", "binding signal": "0.00301 KA relative to UGCAUGU"}
{"binder": "B18", "binding signal": "0.00575 KA relative to UGCAUGU"}
{"binder": "B19", "binding signal": "0.00893 KA relative to UGCAUGU"}
{"binder": "B20", "binding signal": "0.0207 KA relative to UGCAUGU"}
{"binder": "B21", "binding signal": "0.00752 KA relative to UGCAUGU"}
{"binder": "B22", "binding signal": "0.00435 KA relative to UGCAUGU"}
{"binder": "B23", "binding signal": "0.00927 KA relative to UGCAUGU"}
{"binder": "B24", "binding signal": "0.0103 KA relative to UGCAUGU"}
{"binder": "B25", "binding signal": "0.00546 KA relative to UGCAUGU"}
{"binder": "B26", "binding signal": "0.0142 KA relative to UGCAUGU"}
{"binder": "B27", "binding signal": "0.0117 KA relative to UGCAUGU"}
{"binder": "B28", "binding signal": "0.00643 KA relative to UGCAUGU"}
{"binder": "B29", "binding signal": "0.00562 KA relative to UGCAUGU"}
{"binder": "B30", "binding signal": "0.00885 KA relative to UGCAUGU"}
{"binder": "B31", "binding signal": "0.0203 KA relative to UGCAUGU"}
